Reference: the RNAGym collection of RNA variant scans (doi:10.1101/gad.245936.114)
Variants at the floor of the assay are shown more often than the library holds them.

B1: tRNA (parent)
chain: CUCUCGGUAGCCAAGUUGGUUUAAGGCGCAAGACUUUAAUUUAUCACUACGAAAUCUUGAGAUCGGGCGUUCGACUCGCCCCCGGGAGAUUUUUUCCUCGAGCAA

Variants of: B1
Test: nonsense suppression (GFP-seq) (ratio to wild type); higher = more function; SUP4oc tRNA, yeast GFP reporter sort-seq
Method in brief: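 Sorted GFP/RFP bins of yeast were each Illumina-sequenced with a phred ≥30 cutoff; the cells held a genome-integrated ochre-suppressor tRNA variant from a library with ~3% random mutations, a galactose-driven GFP ochre reporter, and RFP. Culture was in raffinose/galactose medium containing 80 mg/L adenine. Nonsense suppression, termed GFPSEQ, is the median GFP/RFP of the bins weighted by each variant's estimated cell share per bin, relative to the unmutated parent tRNA, for variants reaching ≥100 reads and ≥30 cells.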

Variant | nonsense suppression
C1A G10U C34G G86C | ≤ 0.026
C1A G10U U57G | ≤ 0.026
C1A G18A U58A A62U | ≤ 0.026
C1A G18U A54C G88C | ≤ 0.026
C1A G19A C64U | ≤ 0.026
C1A G19C A31G A60U U71A C72G G84U | ≤ 0.026
C1A G25C G85C | ≤ 0.026
C1A G25U C81U | ≤ 0.026
C1A G25U G67A C72G | ≤ 0.026
C1A G26A C79U | ≤ 0.026
C1A G32A | ≤ 0.026
C1A G32U | ≤ 0.026
C1A G61U | ≤ 0.026
C1A G65A | ≤ 0.026
C1A G65A A87C | ≤ 0.026
C1A G67C C77G G88U | ≤ 0.026
C1A G67C G84U | ≤ 0.026
C1A G69A | ≤ 0.026
C1A G69A G88C | ≤ 0.026
C1A G73A | 0.112
C1A G78U | ≤ 0.026

Variant | nonsense suppression
C1A G84C | ≤ 0.026
C1A G85C | ≤ 0.026
C1A G85U | 0.03
C1A U2A | ≤ 0.026
C1A U2A A13U U16G G61A G66U G88C | ≤ 0.026
C1A U2A G28A | ≤ 0.026
C1A U2A G32C G69A | ≤ 0.026
C1A U4C U63G | ≤ 0.026
C1A U4C U76C G78A | ≤ 0.026
C1A U4G | ≤ 0.026
C1A U4G A13U | ≤ 0.026
C1A U4G C11U | ≤ 0.026
C1A U8A U16G U21A U57C U76C | ≤ 0.026
C1A U8A U55C A89U | ≤ 0.026
C1A U8C | ≤ 0.026
C1A U8C G67A | ≤ 0.026
C1A U16A G32A | ≤ 0.026
C1A U16C G18A C64G | ≤ 0.026
C1A U16G A54G C82A | ≤ 0.026
C1A U17G U20G | ≤ 0.026
C1A U20A C34A G59A | ≤ 0.026

Variant | nonsense suppression
C1A U20C | ≤ 0.026
C1A U20G A24C C27G U70G C77U C81U G85A | ≤ 0.026
C1A U21A | ≤ 0.026
C1A U22A G61C | ≤ 0.026
C1A U35A | ≤ 0.026
C1A U35C | ≤ 0.026
C1A U55A U57G A89G | ≤ 0.026
C1A U55C G78C A89U | ≤ 0.026
C1A U55C G85U G88U | ≤ 0.026
C1A U57G U70A | ≤ 0.026
C1A U58G | ≤ 0.026
C1A U63G G66C A74U | ≤ 0.026
C1A U70C | ≤ 0.026
C1A U70G | ≤ 0.026
C1A U71C C77G | ≤ 0.026
C1A U76C | ≤ 0.026
C1G | ≤ 0.026
C1G A9C | ≤ 0.026
C1G A9C U21G C64U | ≤ 0.026
C1G A9G A31G C34G G59C | ≤ 0.026
C1G A9G C11A U21A A30C G78A | ≤ 0.026

Variant | nonsense suppression
C1G A9G C68U | ≤ 0.026
C1G A9G G18A A24C | ≤ 0.026
C1G A9G G18C | ≤ 0.026
C1G A9U A33C G66U G78A | ≤ 0.026
C1G A9U G59A | ≤ 0.026
C1G A9U U58A U63G G88C | ≤ 0.026
C1G A13C G85U | ≤ 0.026
C1G A13G U16G U55C | ≤ 0.026
C1G A13U G25U G59C | ≤ 0.026
C1G A14C | ≤ 0.026
C1G A14C C56A A74U | ≤ 0.026
C1G A14C U63A | ≤ 0.026
C1G A14G C72A | ≤ 0.026
C1G A14G C80G | ≤ 0.026
C1G A14G G19U A62C G69C | ≤ 0.026
C1G A14G U63G U70A C77A C80U G88C | ≤ 0.026
C1G A14U A74U | ≤ 0.026
C1G A14U C34G C75A | ≤ 0.026
C1G A14U C77U | ≤ 0.026
C1G A14U U71A C81A | ≤ 0.026
C1G A23G C56U G66U U76G | ≤ 0.026
